The other results are listed elsewhere or left out.

This assay deals with PfHDP1 homeodomain (GST-tagged). The assay can be described thus: gcPBM binding intensity (ln(normalized median fluorescence intensity)); higher = stronger DNA binding. The gist of the method:
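The highest Masliner-normalised natural-log median intensity across replicate spots of either probe orientation is reported as binding intensity. GST-tagged P. falciparum DNA-binding domains expressed in E. coli were applied for 1 h to an Agilent 4 × 180k array of primer-extended double-stranded 36-bp intergenic genomic probes plus negative controls, and bound protein was detected with Alexa488 anti-GST antibody and scanned at 488 nm.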
Turning to “TATATATATATGTGCACACATATATAATATGTATAA [CACACA_site715]”, the “gcPBM binding intensity (ln)” value was found to be 10.1.
With “AAATAACACATATATACACACATATAACTATAATAT [CACACA_site7298]”, the “gcPBM binding intensity (ln)” value worked out at 6.88.
Turning to “TATATAAAAATCAATTGTACTTTTTTTTTTTTTTTT [XGTACX_site7327]”, the “gcPBM binding intensity (ln)” value came to 6.07.
In the case of “TATATACAAAAATGCACACGAAAAGTAATATATATA [CACACA_site4173]” it was 9.89.
As to “ATATATAAAATTATATGTACATATATAATATATATA [XGTACX_site529]”, the “gcPBM binding intensity (ln)” value was found to be 6.84.
On to “TAGAACAAATAAAACACACACATATATATATATATG [CACACA_site2768]”, for which the “gcPBM binding intensity (ln)” value turned out to be 7.01.
With “TTTATTTTTTAATGTTGTACAATGTTGTTTAATCAA [XGTACX_site6489]”, the “gcPBM binding intensity (ln)” value was 6.48.
Consider “CATAGGATTATACTTTTGGAATATTATTAAATATGT [XGTACX_negctrl_site75]”, for which the “gcPBM binding intensity (ln)” value turned out to be 6.19.
Turning to “TTTTTTTCTTTTCAAACACACAATTGGTATATATTA [CACACA_site3320]”, the “gcPBM binding intensity (ln)” value is 6.88.
“TCATCCGTTTTAAGAAGTACATATTTGAACATATAA [XGTACX_site8040]”: the “gcPBM binding intensity (ln)” value was determined as 6.29.
Regarding “ACATGTCAAACATTTGCACACAAAAAAATAAAAATT [CACACA_site691]”, the “gcPBM binding intensity (ln)” value is 10.2.
Take “TTAATACATTAAATATGTACTTATATATCTCAACTA [XGTACX_site3997]”: the “gcPBM binding intensity (ln)” value amounted to 6.23.
For the sequence “ACCTGAAGAGTCAAACGTACAAATATTATAAAATGA [XGTACX_site3188]”, the “gcPBM binding intensity (ln)” value turned out to be 6.32.
“GTTATATTTTTTTTTTGTACATAATATTGTATTGAC [XGTACX_site6338]”: the “gcPBM binding intensity (ln)” value came out at 6.95.
“ATTAAAAACGGGTGTACACATATATAAATATATATA [CACACA_site4539]”: the “gcPBM binding intensity (ln)” value was determined as 6.71.
For the sequence “AGTAGCATATTCTATTGTACATATATATATATATAT [XGTACX_site2980]”, the “gcPBM binding intensity (ln)” value worked out at 9.39.
As for “TGTATAAAGATATATACACACATATTTATTTATATA [CACACA_site6493]”, the “gcPBM binding intensity (ln)” value came to 6.54.
In the case of “TACAAAATAACTAGCACACATATGTATAAACCTATA [CACACA_site3718]” it was 6.59.
On to “ATATGTATATATGTATGTACGTACAAATTGTTGTAA [XGTACX_site8832]”, for which the “gcPBM binding intensity (ln)” value came out at 7.03.
With “GATGATTATATATATACGCACACTTTTTTTTTTTTT [CACACA_site2652]”, the “gcPBM binding intensity (ln)” value is 7.22.
As for “TATAAATACAGATACACACACACACCGATATATATA [CACACA_site5271]”, the figure is 6.95.
As for “AATATATAAATCTATTGTACATAAAGAGGATAATAA [XGTACX_site1022]”, the figure is 6.54; as for “TATATATATTTTTATGCACACACAAAGAAAATTTTC [CACACA_site8931]”, 10.1; as for “AATACAGATAATACAACACACAAGTAATATAAACCT [CACACA_site5900]”, 6.76.
In the case of “TACTTACTTACTTACTCACACACATATACAAAGAAA [CACACA_site3348]”, the “gcPBM binding intensity (ln)” value was 7.13.
As for “AAAAAAAAAAAAAACACACACACAATAGTATATAAA [CACACA_site957]”, the “gcPBM binding intensity (ln)” value was determined as 6.75.
As to “TTGTTACTGTTTTGGTGTACAAAAAAAAAAAATATA [XGTACX_site5762]”, the “gcPBM binding intensity (ln)” value came out at 6.44.
As for “ATCACAAAATGGAATGTTCTATGATATATATGTATA [XGTACX_negctrl_site460]”, the figure is 6.26; as for “TGTAAATATTTATTCACACATAATCAATTAGAAAAA [CACACA_site5944]”, 6.41; as for “ATTATGCACCAACACACACACACACTCCTAAAAAAT [CACACA_site8822]”, 11.7.
Take “TCTATACCAGAAAAGGGTACATATTTTGGATTGAAC [XGTACX_site8402]”: the “gcPBM binding intensity (ln)” value came to 6.36.
Turning to “AATATAAATAAAAACACACACAATGGTACATATATA [CACACA_site3671]”, the “gcPBM binding intensity (ln)” value turned out to be 6.85.
With “TAATAATACCCAAGCACACACACACCCATATATATA [CACACA_site4831]”, the “gcPBM binding intensity (ln)” value was determined as 6.9.
With “ATTGCAAGTTACTTGTGTACTTATAAGATTAAAAGA [XGTACX_site7696]”, the “gcPBM binding intensity (ln)” value is 7.13.
For “TTTAAATCGTTAAAAACACACAAAAAAAATCAATTA [CACACA_site2519]”, the “gcPBM binding intensity (ln)” value turned out to be 6.52.
“TACTGTGATAGCACCACACACGCAAAAGTGGGTATA [CACACA_site4749]”: the “gcPBM binding intensity (ln)” value was 6.59.
As for “TATGTAGTTTTAAAGTGTACTTATATATATTAATTG [XGTACX_site378]”, the figure is 6.28; as for “ATAAATATATATATCACACATATATAATTATATATA [CACACA_site4787]”, 6.57.
“TTTCTTTTAATAATTAAATATTTATTTATGATTATA [TGCATGCA_negctrl_site30]”: the “gcPBM binding intensity (ln)” value was 6.39.
Take “TACATACATATATTATGTACATATTTTATTTTTATT [XGTACX_site1642]”: the “gcPBM binding intensity (ln)” value amounted to 6.65.
Consider “AAGCATACATCAAGCACACACACACCCACAGAGACA [CACACA_site4362]”, for which the “gcPBM binding intensity (ln)” value was 6.83.
On to AAAAAAAATTCGTGTGTGCGCATATATAATATATAA, for which the “gcPBM binding intensity (ln)” value amounted to 7.73.
“TTATTTCGAAGAAAATGTACATATATAAATATATAC [XGTACX_site3308]”: the “gcPBM binding intensity (ln)” value is 6.04.
For the sequence “ATAATATTTTTTAATTGTACGTTCCATTTTTTTAAA [XGTACX_site1227]”, the “gcPBM binding intensity (ln)” value was 6.7.
As for “CAACAATTTCGTCATACACACATTCAGAATATAGAT [CACACA_site7166]”, the figure is 6.63; as for “ATAATAAAAATATATACATGCATTATTATATATATA [TGCATGCA_site799]”, 7.31.
For “GATAATTACGGACACACACACACACGCACAACTAAA [CACACA_site7254]”, the “gcPBM binding intensity (ln)” value turned out to be 7.41.
Turning to “ACTATCATTCATAGGTGTACCTAAATATATATATAT [XGTACX_site1696]”, the “gcPBM binding intensity (ln)” value is 8.78.
As for “CGAATATATTCTAGACGTACTATATAATATATATAT [XGTACX_site4953]”, the figure is 8.02.
For “TTCTTTTAATTACGAGTGCATACCATATGACATTAT [GTGCAC_site9819]”, the “gcPBM binding intensity (ln)” value came to 7.79.
In the case of “AGAAAAGAGAGAAAAACATGCACATGATATTATAAA [TGCATGCA_site120]” it was 7.53.
As for “GTGAATATTAAAAAATGTACACAATTATATGTATAT [XGTACX_site4834]”, the figure is 6.4; as for “ATAAACATCTAGTGCTGTACACAATTTGATTTTTTT [XGTACX_site3110]”, 6.53; as for “CCCTTAAAATATAAATGTACAAAATTATTTGTATGT [XGTACX_site6164]”, 6.56.
As to “GATTATATATACAAAAGTACATTATAAAAATTTCAT [XGTACX_site4223]”, the “gcPBM binding intensity (ln)” value worked out at 6.11.
In the case of “CAAACATGTTCAAATTGTACAATAGAAAATATATAT [XGTACX_site1557]” it was 6.83; in that of “TTTTTTTTTTTTTTCTGTACTTAAAAAGGGGGAGAA [XGTACX_site3799]”, 6.77; in that of “TTGAAGTTTGATTGTAGTACGAATTGGTAGTTTTTT [XGTACX_site6854]”, 6.03.
In the case of “CAAATACATGGACACACACACATATACAGATATATA [CACACA_site5854]”, the “gcPBM binding intensity (ln)” value worked out at 6.75.
As for “TGAGTATATATAAATACACACCAAATGTTAATATAT [CACACA_site5022]”, the figure is 6.35; as for “AGGTTAATCGAAATTGCATGTGACGAAAAATCAAAA [TGCATGCA_site666]”, 6.43.
Consider “ACGTATGTATATTACACACATACATATTATTCACTA [CACACA_site204]”, for which the “gcPBM binding intensity (ln)” value amounted to 6.73.
Consider “TATTTATAACATTGTACACACAAAGAAATAATATTA [CACACA_site7422]”, for which the “gcPBM binding intensity (ln)” value was determined as 6.43.
Regarding “ACATATATATACTATCGATTAATAAATTTGTTTTTT [CACACA_negctrl_site881]”, the “gcPBM binding intensity (ln)” value was 6.72.
Turning to “ATGATAAACATGGATACACACATATATATTACATAT [CACACA_site1576]”, the “gcPBM binding intensity (ln)” value is 6.86.
For the sequence “CATATATAACATATAACACACATACTTAGTATTACA [CACACA_site5674]”, the “gcPBM binding intensity (ln)” value came to 6.44.
As for “ATAATATTTTATATAGTGCATTTGCTCATTATATAT [GTGCAC_site9528]”, the figure is 9.68.
As for “TATCTTATATTTACACGTACGTAGAATTTATAAGTT [XGTACX_site3460]”, the figure is 6.56; as for “TTTTATTAATATTATTTATCTTCTCAAAAGATATAT [XGTACX_negctrl_site202]”, 6.25.
Consider “CACACGTATAAATATACACACTAAAATACACGCACA [CACACA_site7876]”, for which the “gcPBM binding intensity (ln)” value was 7.23.
On to “TTGTATAATTTAACAAGTACAAAATAAATTTGTATA [XGTACX_site5505]”, for which the “gcPBM binding intensity (ln)” value is 6.06.
As for “TTCAATTAAAAAATATGTACGCATAAATTGATATAT [XGTACX_site4289]”, the figure is 6.54; as for “TTTTATGGAAAGTGTTGTACATATTTTTGTATATGT [XGTACX_site7356]”, 6.37.
Regarding “AAAAGAGAAACATTTACACACAAATATAGATATATG [CACACA_site1027]”, the “gcPBM binding intensity (ln)” value worked out at 6.38.
On to “ATAGTATACGGACACACACACACACCGATATATATA [CACACA_site5032]”, for which the “gcPBM binding intensity (ln)” value worked out at 6.92.
In the case of “ATATATATATATATATGTACATATTTATTTATTTAT [XGTACX_site5161]” it was 9.27.
Take “AGCACAGACTAATAAACACACACATATATATATATA [CACACA_site8021]”: the “gcPBM binding intensity (ln)” value stood at 9.26.
In the case of “CTCATTCTTTTTTGATGTACTTTTTTTTTTTAAGTT [XGTACX_site2875]” it was 6.63; in that of “TAATACAAAAAGAAAAGTACATGTTAATTATTATTT [XGTACX_site2196]”, 6.2; in that of “AACATATAAATGATATGTACACACATTTATATATAT [XGTACX_site7364]”, 7.07.
Regarding “CAAATTAAATATTATGCATGTACCAAACATCCTACC [TGCATGCA_site35]”, the “gcPBM binding intensity (ln)” value amounted to 6.46.
For “TTTTTTTTTTTTTTTTTGCAATATATTTTAAAAAAG [CACACA_negctrl_site25]”, the “gcPBM binding intensity (ln)” value came out at 7.07.
In the case of “TTTTTTTTTTTTTTTTTTTTTTGTGAAACTAAGTAA [CACACA_negctrl_site273]” it was 6.09; in that of “GGAAGAATATATAGGACACACATACAATAATAAATA [CACACA_site6124]”, 6.67.
Take “AACTTCTTTTTTATAACACACAAAATATAAATACAA [CACACA_site4313]”: the “gcPBM binding intensity (ln)” value stood at 6.69.
As for “CTTTTTTTAGTTAGGTGTACAATTTGTTATTATTAG [XGTACX_site1507]”, the figure is 6.9; as for “TATAACAGGAATTATATATATATATATATATATTAT [CACACA_negctrl_site911]”, 7.14; as for “TTTTTTTTTTTTTTTTGTACATATTTCTTATAAGTG [XGTACX_site6459]”, 6.25.
With “TTTAATATGTATTTTTTTTTTTTTTTTTTTTTTTTT [XGTACX_negctrl_site440]”, the “gcPBM binding intensity (ln)” value turned out to be 7.31.

The values above are taken from the supplement of paper PMC11417369.
